# Source: PMC4336329 (PLoS ONE, 2015)
# The campaign covered roughly 310,000 compounds. About 14,000 (4.5%) showed an effect of 50% or more. The effect is printed as a negative number. The list shows a part of the results.
# Molecular target: human ether-à-go-go-related gene (hERG) potassium channel (human, UniProt Q12809)
# Test: primary screen, population patch clamp on CHO cells stably expressing hERG
# 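Also: peak tail current of the secondary pulse compared with the same well before compound.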
# Sequence of human ether-à-go-go-related gene (hERG) potassium channel (Q12809 whole entry, looked up): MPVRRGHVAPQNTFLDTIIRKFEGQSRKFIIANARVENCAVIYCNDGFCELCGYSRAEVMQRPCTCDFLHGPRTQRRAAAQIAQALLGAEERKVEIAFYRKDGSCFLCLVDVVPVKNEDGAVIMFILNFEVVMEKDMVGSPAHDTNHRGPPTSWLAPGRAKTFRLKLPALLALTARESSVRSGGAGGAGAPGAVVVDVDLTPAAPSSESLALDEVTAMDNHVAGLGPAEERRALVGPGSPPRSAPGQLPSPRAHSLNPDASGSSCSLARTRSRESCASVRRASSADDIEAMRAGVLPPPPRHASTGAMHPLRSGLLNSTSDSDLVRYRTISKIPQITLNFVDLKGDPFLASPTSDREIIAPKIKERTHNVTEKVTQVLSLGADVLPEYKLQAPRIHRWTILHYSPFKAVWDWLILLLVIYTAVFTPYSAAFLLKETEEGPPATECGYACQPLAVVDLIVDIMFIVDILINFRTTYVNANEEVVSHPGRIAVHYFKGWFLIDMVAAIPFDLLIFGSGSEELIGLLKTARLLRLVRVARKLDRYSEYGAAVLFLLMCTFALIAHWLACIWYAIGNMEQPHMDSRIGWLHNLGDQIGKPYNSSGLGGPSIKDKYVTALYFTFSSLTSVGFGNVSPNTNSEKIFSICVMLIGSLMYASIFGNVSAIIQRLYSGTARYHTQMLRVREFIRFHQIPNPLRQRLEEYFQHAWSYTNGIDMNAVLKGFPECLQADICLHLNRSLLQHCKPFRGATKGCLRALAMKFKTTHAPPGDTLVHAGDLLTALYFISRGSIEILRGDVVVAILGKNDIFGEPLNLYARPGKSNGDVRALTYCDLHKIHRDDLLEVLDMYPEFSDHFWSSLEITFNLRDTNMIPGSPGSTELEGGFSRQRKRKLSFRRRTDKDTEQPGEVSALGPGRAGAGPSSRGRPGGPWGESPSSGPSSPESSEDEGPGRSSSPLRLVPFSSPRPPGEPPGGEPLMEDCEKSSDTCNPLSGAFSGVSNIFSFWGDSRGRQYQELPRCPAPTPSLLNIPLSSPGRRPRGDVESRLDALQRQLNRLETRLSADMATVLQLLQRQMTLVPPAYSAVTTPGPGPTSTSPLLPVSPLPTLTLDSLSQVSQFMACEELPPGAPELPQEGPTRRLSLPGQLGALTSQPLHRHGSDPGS
row,SMILES,"hERG current change (%, negative = inhibition) at 10uM"
1,O=C(NCCCn1ccnc1)/C(=C/c1ccccc1)NC(=O)c1ccccc1,-70.3%
2,CC(C)OCCCNc1ncnc2c1cnn2-c1ccccc1,2.87%
3,NC(=O)CC(NC(=O)c1ccccc1)c1ccc(NC2CCN(Cc3ccccc3)CC2)c([N+](=O)[O-])c1 (centres unmarked),1.08%
4,COCCN1Cc2cc3cc(C)ccc3nc2SC1=Nc1cccc(OC)c1,21.3%
5,O=C(CCC(=O)OCC(=O)c1cccc([N+](=O)[O-])c1)Nc1cccc(Cl)c1Cl,3.97%
6,O=C(/C=C/c1ccccc1)N(Cc1cccc(Cl)c1)C1CCS(=O)(=O)C1 (centres unmarked),-25.6%
7,Cc1ccc(NC(=O)CN2CCN(S(=O)(=O)c3cccs3)CC2)cc1S(=O)(=O)N(C)C,-37.7%
8,COc1ccc(CN2CCNC(=O)C2CC(=O)N2CCc3ccccc3C2)c(OC)c1 (centres unmarked),2.51%
9,CCOc1ccc2c(c1)sc(=NC(=O)C1CC1)n2C,-5.78%
10,O=C(NNS(=O)(=O)c1ccc(Cl)cc1)c1cccs1,10.5%
11,COc1ccc(S(=O)(=O)N2CCN(c3nc(C)cc(C)n3)CC2)cc1,2.96%
12,O=C(C1CCCN(S(=O)(=O)c2ccccc2)C1)N1CCCCCC1 (centres unmarked),-2.74%
13,c1ccc2c(c1)CCN(c1nc3ccccc3n3cnnc13)C2,-10.1%
14,CCSc1nc(=S)n(CC)c(C)c1C(C)=O,-0.368%
15,CCN1CCN(CCC2Oc3cc([N+](=O)[O-])ccc3NC2=O)CC1 (centres unmarked),13.7%
16,COc1cc(C2(c3ccc(O)c(OC)c3)C(=O)Nc3c(C)cc(Br)cc32)ccc1O,-23.1%
17,O=C(c1ccccc1)C1CCN(C(=O)c2c(F)cccc2F)CC1,12.4%
18,CN(C)S(=O)(=O)c1cccc(NC(=S)N/N=C/C2CC=CCC2)c1 (centres unmarked),-4.08%
19,COc1ccc(C(=O)Nc2nc(N)n(-c3ccccc3)n2)cc1OC,-0.41%
20,CN(CC(=O)Nc1ccc(F)cc1)CC(=O)N1CCCCCC1,0.678%
21,COc1cc2cc(CN(CCCN3CCOCC3)Cc3nnnn3Cc3ccccc3)c(=O)[nH]c2cc1OC,-20.2%
22,Cl.O=C([C@H](Cc1ccc(O)cc1)n1cc(CCO)nn1)N1CCNCC1,24%
23,CN(C)CCN(Cc1cc2cc3c(cc2[nH]c1=O)OCO3)C(=S)NCc1ccco1,-11.4%
